Measured values from PMC4336329 (PLoS ONE, 2015).
The campaign covered roughly 310,000 compounds. About 14,000 (4.5%) showed an effect of 50% or more. The effect is printed as a negative number. The list shows a part of the results.

target: human ether-à-go-go-related gene (hERG) potassium channel (human, UniProt Q12809); assay: primary screen, population patch clamp on CHO cells stably expressing hERG
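Further: peak tail current of the secondary pulse compared with the same well before compound.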

Chain of human ether-à-go-go-related gene (hERG) potassium channel (Q12809 whole entry, looked up): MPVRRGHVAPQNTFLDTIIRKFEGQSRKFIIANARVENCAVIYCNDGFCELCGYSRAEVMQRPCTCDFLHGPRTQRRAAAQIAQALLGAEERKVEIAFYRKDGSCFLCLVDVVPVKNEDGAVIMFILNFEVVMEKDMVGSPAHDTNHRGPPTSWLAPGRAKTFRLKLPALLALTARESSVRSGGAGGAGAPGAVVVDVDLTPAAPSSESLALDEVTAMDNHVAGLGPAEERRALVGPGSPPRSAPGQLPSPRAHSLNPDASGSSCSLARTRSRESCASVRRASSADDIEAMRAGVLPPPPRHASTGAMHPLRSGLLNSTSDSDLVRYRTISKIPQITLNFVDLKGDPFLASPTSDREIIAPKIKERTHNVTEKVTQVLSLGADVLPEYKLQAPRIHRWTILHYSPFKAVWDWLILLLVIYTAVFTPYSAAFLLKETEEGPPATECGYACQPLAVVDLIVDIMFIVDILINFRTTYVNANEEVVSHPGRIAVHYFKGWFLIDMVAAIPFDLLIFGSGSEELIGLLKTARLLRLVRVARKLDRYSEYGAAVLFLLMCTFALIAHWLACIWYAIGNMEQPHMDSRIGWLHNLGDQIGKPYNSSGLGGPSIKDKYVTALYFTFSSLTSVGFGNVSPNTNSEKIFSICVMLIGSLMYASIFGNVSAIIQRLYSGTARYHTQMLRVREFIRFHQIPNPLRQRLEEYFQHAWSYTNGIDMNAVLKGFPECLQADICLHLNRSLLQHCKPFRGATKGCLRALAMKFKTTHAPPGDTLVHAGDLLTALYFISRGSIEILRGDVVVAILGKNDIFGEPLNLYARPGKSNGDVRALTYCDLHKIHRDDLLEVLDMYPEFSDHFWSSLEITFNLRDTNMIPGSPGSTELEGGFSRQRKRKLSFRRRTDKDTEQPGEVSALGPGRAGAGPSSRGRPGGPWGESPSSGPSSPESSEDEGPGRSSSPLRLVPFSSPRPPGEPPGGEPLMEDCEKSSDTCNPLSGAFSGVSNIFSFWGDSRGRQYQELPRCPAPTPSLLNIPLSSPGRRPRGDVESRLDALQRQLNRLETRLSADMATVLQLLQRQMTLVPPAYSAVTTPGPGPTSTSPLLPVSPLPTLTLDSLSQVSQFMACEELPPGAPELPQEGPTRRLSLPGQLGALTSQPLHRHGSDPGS

SMILES	hERG current change (%, negative = inhibition) at 10uM
COCCN(C(=O)COC(=O)CCc1ccc(OC)cc1)c1c(N)n(Cc2ccccc2)c(=O)[nH]c1=O	27.6%
CCCCNC(=O)/C(C#N)=C/c1ccc(F)cc1F	17.1%
O=C(CCCC(=O)OCC(=O)c1cccs1)Nc1ccc(F)cc1	-30.9%
CC(C)CC1C(C#N)=C(N)OC2=C1C(=O)CC(c1ccccc1)C2 (centres unmarked)	-9.18%
O=C(Nc1ccc(C(=O)N2CCCc3ccccc32)cc1)c1cccs1	12.4%
O=C(CN1CCN(C(=O)C2CCCO2)CC1)Nc1ccc(Br)cc1 (centres unmarked)	-70%
CC1CCC(NC(=O)C2CCC(CNS(=O)(=O)c3cccc4nsnc34)CC2)CC1 (centres unmarked)	1.51%
COC(=O)c1cc2n(n1)CCN(Cc1ccc(OC)cc1)C2=O	-0.73%
CCOC(=O)c1ccc(NC(=O)CCc2nc(-c3ccc(Cl)cc3)no2)cc1	8.36%
CCCC(O)(CCN1CCOCC1)c1ccc(Br)cc1.Cl (centres unmarked)	-20.7%
O=c1cc(CO)oc(C(Nc2ccccn2)c2cccc(F)c2)c1O (centres unmarked)	5.36%
CN(C)c1ccc(C2C3C(=O)N(c4ccc(C(=O)O)cc4)C(=O)C3ON2c2ccccc2)cc1 (centres unmarked)	7.23%
CCOC(=O)CSc1nc(N)c2c3c(sc2n1)CCCC3	-0.576%
CC(OC(=O)Cc1c[nH]c2ccccc12)C(=O)NC1CCCCC1C (centres unmarked)	-5.09%
Cc1occc1-c1nnc(SCC(=O)c2ccc3c(c2)OCCO3)n1CC1CCCO1 (centres unmarked)	-12.5%
CCC(=NCCC1=CCCCC1)c1c(O)[nH]c(=O)[nH]c1=O	-0.506%
Cc1cc(Cl)ccc1OCc1nc(-c2ccncc2)no1	-5.1%
O=C(O)C(C/C(=N/O)c1ccc(Br)cc1)P(=O)(c1ccccc1)c1ccccc1 (centres unmarked)	12%
O=C(O)CC(NC(=O)C1c2ccccc2Oc2ccccc21)c1ccc(Cl)cc1 (centres unmarked)	9.04%
COc1ccc(S(=O)(=O)N2CCN(CCOc3ccc(Br)cc3)CC2)cc1OC	-12.8%
O=C(CN1C(=O)C2CC=CCC2C1=O)NCc1cccs1 (centres unmarked)	5.19%
COc1ccc(CCNCC(O)COc2cccc(C(C)=O)c2)cc1OC.O=C(O)C(=O)O (centres unmarked)	-0.028%
O=C(CN1CCN(Cc2ccccc2F)C1=O)NCC1CCCO1 (centres unmarked)	2.9%

SMILES	hERG current change (%, negative = inhibition) at 10uM
N#Cc1c(-c2ccccc2)cc(-c2ccccc2)nc1SCC(=O)O	34.7%
COc1ccc(NCc2nnc(SCC(=O)N3CCCc4ccccc43)o2)cc1	-7.78%
C/C(=N/Nc1ccc(Cl)cc1)c1cnnc(-c2ccccc2)n1	29.9%
Cc1ccc(-c2nc(CS(=O)CC(=O)NCc3ccc(Cl)cc3)c(C)o2)cc1 (centres unmarked)	0.973%
Cc1noc(C)c1C(=O)Nc1ccc(F)cc1	33.3%
COC(=O)c1cc(NC(=O)Nc2ccccc2)ccc1Cl	8.32%
CCOC(=O)c1ccccc1NC(=O)c1cc2ccccc2o1	20.9%
O=C(NCc1cccnc1)c1ccccc1NC(=O)c1c(F)cccc1F	4.58%
O=C(N/N=C/c1c[nH]c2ccccc12)c1ccccc1O	6.71%
Br.O=C(Cn1c(NCCO)nc2ccccc21)c1ccc(F)cc1	6.28%
Cc1noc(C)c1COC(=O)c1cccnc1Cl	3.21%
CN(CC(=O)NCCc1ccc(Cl)cc1)S(=O)(=O)c1ccc2c(c1)c(=O)n(C)c(=O)n2C	-23.1%
CCOc1ccccc1C(=O)NCC(=O)NNC(=O)CN(C)S(=O)(=O)c1ccc(Cl)cc1	-2.59%
CCCOc1ccc(C(=O)CCC(=O)Nc2ccc(N3CCN(C)CC3)cc2)cc1	-48.2%
CC(=O)c1cnc(N2CCCCC2)nc1C	-11.6%
CCC(CC)C(=O)Nc1nnc(S(=O)(=O)Nc2ccc(OC)cc2)s1	9.66%
Cc1ccc(C)c(S(=O)(=O)N2CCN(CC(=O)Nc3ccc([N+](=O)[O-])cc3)CC2)c1	-40.7%
COc1cccc(N2C(=O)CN(Cc3ccc(OC)c(OC)c3)C2=S)c1	17%
COc1ccc(CN2C(=NC(=O)COc3ccccc3)SC3CS(=O)(=O)CC32)cc1 (centres unmarked)	-6.21%
CCCCn1c(N)c(N(CCOC)C(=O)c2ccc(N3CCCC3=O)cc2)c(=O)[nH]c1=O	-4.48%
CN1CCN(C(=O)/C(=C\c2cccs2)NC(=O)c2cccs2)CC1	-72.5%
COc1ccc(OC)c(NC(=S)NC(=O)c2ccc(Br)o2)c1	19.9%
CC(C)Sc1cc(N2CCOCC2)nc(-c2ccccc2)n1	2.76%

SMILES	hERG current change (%, negative = inhibition) at 10uM
COc1cc(NC(=O)Cn2cnc3c(nc4n3CCCCC4)c2=O)cc(OC)c1OC	22.8%
CSc1nnc(CNC(=O)C23CC4CC(CC(C4)C2)C3)n1Cc1ccccc1	-4.68%
COc1ccc(OC)c2[nH]c(=O)c(CCNC(=O)c3ccc(S(=O)(=O)N(C)C)cc3)cc12	0.759%
Cn1c(N)c(C(=O)CSc2nnnn2-c2ccccc2)c(=O)n(C)c1=O	20.7%
Cc1ccc(S(=O)(=O)n2nc(OC(=O)c3ccccc3F)cc2N)cc1	9.49%
COc1ccc(CNC(=O)CSc2ncnc3nc[nH]c23)cc1	-0.00572%
Cc1cccc(/C=N/NC(=O)C(C)Nc2cccc3ccccc23)n1 (centres unmarked)	0.248%
COC(=O)c1ccc(C2c3c(oc4ccc(F)cc4c3=O)C(=O)N2CCO)cc1 (centres unmarked)	3.74%
COCCNC(=O)c1ccccc1NC(=O)Nc1ccccc1	5.07%
O=c1c(Cc2ccc(F)cc2)c(O)ccn1CCc1ccccn1	12.4%
CCCCSP1(=S)NCCCN1	10.1%
Cc1cccc(NC(=S)NCc2ccncc2)c1C	2.85%
COc1ccc(CCNC(=O)c2csc3c2CCCC3)cc1	7.93%
O=C(NCc1ccccn1)c1cc(-n2cnnc2)ccc1Cl	4.84%
O=C(NNC(=O)C1CC=CCC1C(=O)O)c1ccc(Cl)cc1 (centres unmarked)	20.6%
Cc1cc(C)nc(Nc2ncc(O)n2-c2ccc(Br)cc2)n1	7.17%
Cc1ccccc1Nc1nc2ccccc2n1C(C)C	3.62%
COc1ccccc1OCCn1cc(C#N)c2ccccc21	6.21%
Cc1cc(C)c2c(N)c(C(=O)N/N=C/c3cccs3)sc2n1	11.4%
COc1cccc(C(=O)N2CCN(C(=O)Cc3ccccc3)CC2)c1.O=C(O)C(=O)O	-0.00122%
O=C(O)c1ccccc1C(=O)NC1=NN(c2ccccc2)CC1	-0.462%
O=S(=O)(/C=C/c1ccccc1)Oc1ccccc1	-11.7%
Cc1noc(C)c1S(=O)(=O)NCc1ccc2c(c1)OCO2	-4.46%

SMILES	hERG current change (%, negative = inhibition) at 10uM
Cc1nnc(NC(=O)c2c(-c3ccccc3Cl)noc2C)s1	12.1%
CCOC(=O)Cc1csc(NC(=O)c2c(O)c3ccccc3n(CC(C)C)c2=O)n1	-6.33%
CNC(=O)COC(=O)c1cc2c(s1)CCCC2	12.5%
O=C(Cn1cnc(S(=O)(=O)N2CCCC2)c1)Nc1cccc(F)c1	15.8%
COc1ccc(NS(=O)(=O)c2cc(NC(=O)CC(=O)c3ccc([N+](=O)[O-])cc3)ccc2C)cc1	5.94%
COCCn1cnc2c1c(=O)n(CC(=O)NC(=O)NC(C)(C)C)c(=O)n2Cc1ccccc1	2.13%
CC(C(=O)N1CCN(C=O)CC1)N1C(=O)c2ccccc2C1=O (centres unmarked)	6.4%
CCc1nc(SCC(=O)Nc2cc(C)ccc2OC)c2c(C)c(C)sc2n1	13.4%
COc1cccc(NC(=O)CSc2nc(C)cs2)c1	5.74%
Cc1ccc(C)c2nc(Cl)c(C3NC(=O)c4ccccc4N3)cc12 (centres unmarked)	-4.91%
O.O=C(NCc1nc2ccccc2[nH]1)c1ccc(Cl)c(S(=O)(=O)N2CCCC2)c1	-14.3%
CSc1nc(=O)n(-c2ccccc2)c(C)c1C(C)=O	22.3%
O=C(CCCN1C(=O)/C(=C/c2cccs2)SC1=S)NNC(=O)c1ccccc1O	4.76%
O=C(CSc1nnc(-c2ccccc2Cl)o1)N1CCCC1	18.4%
Cc1ccccc1NC(=O)C1CCN(c2cc(-c3ccccc3)nc3ncnn23)CC1	-8.86%
S=C(NCCc1ccccc1)N1CCOCC1	22.6%
CCN1CCN(C(c2cccs2)C(C)NC(=O)CC(C)C)CC1 (centres unmarked)	-6.37%
CCOc1ccc(N2C(=O)/C(=C\c3ccc(OC)c(O)c3)S(=O)(=O)C2c2cccc([N+](=O)[O-])c2)cc1 (centres unmarked)	10.1%
O=C(CN1CCN(Cc2cccc(Cl)c2)C1=O)NCc1ccccn1	6.12%
Cc1c(CCOC(=O)CC23CC4CC(CC(C4)C2)C3)sc[n+]1Cc1ccccc1.[Cl-]	-42.1%
